Experimental data reported in PubChem BioAssay AID652106 (National Center for Advancing Translational Sciences (NCATS), 2013).
The whole screen tested about 370,000 compounds, of which about 500 (0.14%) were called active. Inconclusive means that the source gave no clear call. Such entries were picked first, then a sample of the others. Calls follow the shape of the dose curve; as a rule, active = well fitted activation curve with a large enough effect; inconclusive = small, poorly fitted or top-dose-only effect; inactive = no such curve, though single readings can be large or run the other way. No potency is given beside an inconclusive call; the fits are too rough.

assay: qHTS of alpha-syn Inhibitors; conditions: Yeast expressing alpha-synuclein, BacTiter-Glo, 24 h; Potency: growth rescue unless noted; growth rescue (activation): at 46.1 µM (top of the series) unless noted; also: nearly all actives have a fitted effect of over 65% in size; as to growth rescue (activation): % of control where 0% means no effect
How it was run: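 Galactose-induced alpha-syn yeast (OD600=0.02, raffinose-pregrown) + pinned cpd, 24 hr, 30 deg C; growth by BacTiter-Glo luminescence. Growth restoration scores as activation.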
Potency is read from the fitted curve at half-maximal effect; tags tell the direction and shape of the fitted curve.

Compound | growth rescue (activation) | Potency
O=C(CSCC(=O)N1CCCCC1)Nc1nc(-c2ccc(Cl)s2)cs1 | inactive: -11.7% | 
COc1nc(SCC(=O)Nc2ccccc2Cl)nc(N(C)C)n1 |  | inconclusive [activator, single point]
COc1cc(-c2coc3c(C(=O)NCc4cccc(Cl)c4)cccc23)ccc1O |  | inconclusive [activator, single point]
COc1cc(C(=O)OCC(=O)c2cc(C)n(CC3CCCO3)c2C)ccc1OCC(=O)N1CCOCC1 (stereo unspecified) | inactive: 6.91% | 
CC1C(c2ccccc2)N(C)C(c2ccccc2)CC1(O)c1ccccc1 (stereo unspecified) |  | inconclusive [activator, single point]
O=C(O)c1ccc(/C=N/N2CCN(Cc3ccc(Cl)cc3)CC2)cc1 | inactive: 8.77% | 
Cc1nn2c(=O)cc(COC(=O)c3c(F)cccc3Cl)nc2s1 | inactive: 13.3% | 
Cc1oc2c(c1C(=O)O)C(=O)c1ccccc1C2=O | inactive: 9% | 
C=CCN=c1scc(-c2ccc3c(c2)NC(=O)CO3)n1/N=C(\C)c1ccccn1 | inactive: -25.7% | 
COc1ccc(/C=C2/C(=O)ON=C2c2ccccc2)cc1OC |  | active: 12.6 µM
CCN(CC)C(=O)CSc1ncnc2c1nnn2-c1ccc(F)cc1 |  | inconclusive [activator, single point]
CC(C)=C1SC(N2CCN(c3ccc(C)c(Cl)c3)CC2)=NC1=O |  | inconclusive [activator, single point]
Cc1nc2scc(C)n2c(=O)c1S(=O)(=O)N1CCN(c2cccc(C(F)(F)F)c2)CC1 |  | inconclusive [activator, single point]
Cc1ccc(/C=C/C(=O)N2CCN(S(=O)(=O)c3ccc(C)c(C)c3)CC2)o1 |  | inconclusive [activator, single point]
CC(=O)c1cccc(N(C(=O)CNC(=O)c2ccco2)C(C(=O)NCc2ccco2)c2ccccc2)c1 (stereo unspecified) |  | inconclusive [activator, single point]
CCCCn1c(NCc2cc(Cl)ccc2O)nc2ccccc21 |  | inconclusive [activator, single point]
CC(Oc1cccc(Br)c1)C(=O)NNC(=O)c1ccccn1 (stereo unspecified) |  | inconclusive [activator, single point]
CC(C)Oc1ccc(CNC(=O)CC(c2ccccc2)c2cc(Cl)ccc2O)cc1 (stereo unspecified) |  | inconclusive [activator, single point]
O=c1cc(Cn2nnc(-c3ccc(Cl)cc3)n2)nc2sccn12 |  | inconclusive [activator, single point]
CCCCCCCCC(=O)N/N=C/c1ccccn1 |  | inconclusive [activator, single point]
Cc1cc(Nc2ccccc2)n(-c2ccc(C(=O)O)cc2)n1 |  | inconclusive [activator, single point]
COc1cc(OC)c2c(O)c3c(c(-c4c5c(c(O)c6c(OC)cc(OC)cc46)CO[C@@H](C)[C@H]5O)c2c1)[C@H](O)[C@H](C)OC3 |  | inconclusive [activator, single point]
Cc1cc(C)cc(C(=O)NCC(=O)N2CCN(c3cccc(Cl)c3)CC2)c1 | inactive: 2.35% | 
NC(=O)c1ccc(=O)n(C2OC(CO)C(O)C2O)c1 (stereo unspecified) |  | inconclusive [activator, single point]

Compound | growth rescue (activation) | Potency
CC(C)[C@H](NS(=O)(=O)c1cccc(Cl)c1)C(=O)OCC(=O)N1CCN(c2ccccc2)CC1 |  | inconclusive [activator, single point]
S=C1NCCc2ccc(Cl)cc2C1c1ccccc1 (stereo unspecified) |  | inconclusive [activator, partial curve]
COC(=O)C1CN(S(=O)(=O)c2ccc(NC(C)=O)cc2)CCS1 (stereo unspecified) |  | inconclusive [activator, single point]
O=C(NC(=S)Nc1ccccc1N1CCOCC1)c1ccc(-c2ccccc2F)o1 |  | inconclusive [activator, single point]
CCC1(C)COC(c2ccc(OC)c(OC)c2)OC1 (stereo unspecified) |  | inconclusive [activator, single point]
CN(C)c1nc(-c2ccccc2)ncc1S(=O)(=O)c1ccccc1 | inactive: 9.53% | 
O=Cc1ccccc1OCCOc1ccccc1C=O | inactive: -5.97% | 
Cc1ccc(-c2nc3ccccc3c(=O)n2O)cc1 |  | active: 20 µM
CCCn1c(NC(=O)c2cccc(C)c2C)nc2ccccc21 |  | inconclusive [activator, single point]
S=C1N(c2ccccc2)C(c2ccc(Br)cc2)N2CCCN12 (stereo unspecified) | inactive: 20.3% | 
COc1ccc([C@H]2[C@H](C(=O)C(C)(C)C)N3N=Cc4ccccc4C3[C@]23N=C(c2ccccc2)OC3=O)cc1OC (stereo partly specified) | inactive: -3.38% | 
Cc1ccc(-n2c(=O)cc(NCc3cccnc3)[nH]c2=O)cc1 |  | inconclusive [activator, single point]
C[n+]1c(/C=C/c2ccc(N)cc2)sc2ccccc21 |  | inconclusive [activator, single point]
C=C(C)c1cc2c(ccc3ccc(=O)oc32)o1 |  | inconclusive [activator, single point]
O=C(Nc1nnc(-c2cccnc2)s1)c1cccs1 |  | inconclusive [activator, single point]
COc1ccc2oc(C(=O)OCc3nnc(-c4ccccc4)o3)c(C)c2c1 | inactive: -2.1% | 
CS(=O)(=O)N(CC(=O)N1CCN(c2ccccc2F)CC1)c1cccc(C(F)(F)F)c1 |  | inconclusive [activator, single point]
CCOc1ccc(Br)cc1CNc1ccc2c(c1)OCCO2 |  | inconclusive [activator, partial curve]
CC(C)(C)C(=O)C(Cc1ccccc1)n1cncn1 (stereo unspecified) |  | inconclusive [activator, partial curve]
COc1ccc(CN(CC(O)COCc2ccccc2)S(=O)(=O)c2ccccc2Br)cc1 (stereo unspecified) |  | inconclusive [activator, single point]
CCOc1ccccc1Nc1nc2ccc(C)cc2n2cnnc12 |  | inconclusive [activator, single point]
CCCCC(=O)NNC(=O)c1c(O)c2ccccc2[nH]c1=O |  | inconclusive [activator, single point]
Clc1cccc(CNc2ccn3nc(-c4ccco4)cc3n2)c1 |  | inconclusive [activator, single point]
COc1ccc2[nH]c3c(c2c1)CCN1C(=O)C(CC(=O)NC(C)(C)C)C[C@H](C(=O)N2CCCCC2)[C@@]31CCc1ccccc1 (stereo partly specified) |  | inconclusive [activator, single point]

Compound | growth rescue (activation) | Potency
Cc1ccc([C@H]2C[C@H](O)[C@@H](n3cc(C4CC4)nn3)CN2C(=O)C2CCCCC2)cc1 |  | inconclusive [activator, single point]
COc1ccc(NC(=O)N2C3CCCC2CC(NC(=O)C2CC2)C3)cc1 (stereo unspecified) | inactive: 2.18% | 
CC[n+]1cc(-c2ccccc2)nc(N2CCOCC2)n1 |  | inconclusive [activator, partial curve]
Cc1noc(C)c1C(=O)N1CCC(Cc2ccccc2)CC1 |  | inconclusive [activator, single point]
Cc1cccc(C)c1NC(=O)C(c1cc2ccccc2o1)N1CCC(c2ccccc2)CC1 (stereo unspecified) |  | inconclusive [activator, single point]
S=c1[nH]nc(Cc2c[nH]c3ccccc23)o1 | inactive: -19.2% | 
COCCN(CCOC)Cc1cc(=O)oc2cc(OC)ccc12 |  | inconclusive [activator, single point]
Cc1ccc(SCc2nc(-c3ccccn3)no2)cc1 |  | inconclusive [activator, single point]
Cc1cc(C)cc(N(CC(=O)Nc2cccc(C)n2)S(=O)(=O)c2c(C)noc2C)c1 |  | inconclusive [activator, single point]
Cc1nnc(NC(=O)c2ccc3ccccc3n2)s1 |  | inconclusive [activator, single point]
O=C1c2ccccc2NC(c2ccccc2)N1Cc1ccco1 (stereo unspecified) | inactive: 8.35% | 
O=C(COc1ccc(Cl)cc1)N1CCN(c2cccc(C(F)(F)F)c2)CC1 |  | inconclusive [activator, single point]
COc1ccccc1N1CCN(C(=O)c2cc3c(s2)CCC3)CC1 | inactive: 1.74% | 
CC(=O)c1c(O)cc(O)cc1CC(=O)O | inactive: -6.14% | 
Cc1ccc(/C=N/Nc2nc3ccccc3s2)o1 | inactive: -0.203% | 
COc1ccc(NC(=O)N2CCN(c3cc(-c4noc(C)n4)ccc3C)CC2)c(OC)c1 |  | inconclusive [activator, single point]
COCCN(C(=S)Nc1ccc(C)cc1C)C(C)c1cccs1 (stereo unspecified) |  | inconclusive [activator, single point]
O=C(Nc1nnc(SCc2ccc(F)cc2)s1)c1ccccn1 |  | active: 4.47 µM
CCCOc1ccc(C(=O)C(CN2CCCC2)c2ccccc2)cc1 (stereo unspecified) | inactive: 8.37% | 
CC(=O)N1N=C(c2ccc(C)cc2)CC1c1ccc2c(c1)OCO2 (stereo unspecified) |  | inconclusive [activator, single point]
O=C(O)CSc1nc2c(c(C(F)(F)F)n1)CCc1ccccc1-2 |  | inconclusive [activator, single point]
COC(=O)C1=NN(c2ccc(OC)cc2)C2C(=O)N(c3ccccc3OC)C(=O)C12 (stereo unspecified) | inactive: 2.88% | 
Clc1ccc(OCc2nn3c(-c4ccco4)nnc3s2)cc1 | inactive: -2.8% | 
